Laboratory results from the supplement of paper PMC4967469.
By IC50 is meant the dose at which the fit gives 50% viability; fits outside the tested doses are given as limits. For AUC the same curve is integrated over the 256-fold range of doses and scaled to a fraction; values near 1 show little effect. For part of these data: An inferred top dose comes from the curve model; the source does not state it.

Legend:
Assay in all cases: Viability of human cancer cell lines after 72 h of drug (GDSC screen)
[1] = compound: C=CC(=O)Nc1cc(NC(=O)c2ccc(C)c(NC(=O)c3ccno3)c2)cc(C(F)(F)F)c1 [QL-XI-92]; conditions: top dose 10.24 µM; top dose inferred
Method: (§1)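 Human cancer cell lines in 384-well plates, medium with 10% serum, drug for 72 h over a 256-fold dose range (nine 2-fold or five 4-fold steps up to the top dose). Adherent lines were fixed and stained with the nucleic acid dye Syto60, suspension lines read with resazurin; signal relative to control wells, capped at 0 and 100%. One two-parameter sigmoid per drug and line, fitted in a mixed model over all curves with the slope shared within a line.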

[2] = compound: CCC1=C[C@@H]2CN(C1)Cc1c([nH]c3ccccc13)[C@@](C(=O)OC)(c1cc3c(cc1OC)N(C)[C@H]1[C@@](O)(C(=O)OC)[C@H](OC(C)=O)[C@]4(CC)C=CCN5CC[C@]31[C@@H]54)C2 [Vinorelbine]; conditions: top dose 0.064 µM; top dose inferred
Method: as §1

[3] = compound: CNCc1ccc(-c2[nH]c3cc(F)cc4c3c2CCNC4=O)cc1 [AG-014699]; conditions: top dose 5 µM; top dose inferred
Method: as §1

[4] = compound: COc1cc2nccc(Oc3ccc(NC(=O)C4(C(=O)Nc5ccc(F)cc5)CC4)cc3)c2cc1OC [XL-184]; conditions: top dose 5.12 µM; top dose inferred
Method: as §1

[5] = compound: COc1cc2ncnc(Nc3cc(Br)c(O)c(Br)c3)c2cc1OC [WHI-P97]; conditions: top dose 10.24 µM; top dose inferred
Method: as §1

[6] = compound: COc1cc2ncnc(Nc3ccc(F)c(Cl)c3)c2cc1OCCCN1CCOCC1 [Gefitinib]; conditions: top dose 0.5 µM
Method: as §1

[7] = compound: N=C(N)NC(=N)NCCc1ccccc1 [Phenformin]; conditions: top dose 4000 µM; top dose inferred
Method: as §1

[8] = compound: O=c1cc(CN2CCOCC2)occ1OCCCCCSc1ccnc2cc(C(F)(F)F)ccc12 [EHT 1864]; conditions: top dose 10 µM; top dose inferred
Method: as §1

[9] = compound: O=c1cc(N2CCOCC2)oc2c(-c3cccc4c3sc3ccccc34)cccc12 [NU-7441]; conditions: top dose 2 µM; top dose inferred
Method: as §1

Cell Line	AUC [1]	IC50 [1] [µM]	AUC [2]	IC50 [2] [µM]	AUC [3]	IC50 [3] [µM]	AUC [4]	IC50 [4] [µM]	AUC [5]	IC50 [5] [µM]	AUC [6]	IC50 [6] [µM]	AUC [7]	IC50 [7] [µM]	AUC [8]	IC50 [8] [µM]	AUC [9]	IC50 [9] [µM]
PANC-03-27 (pancreas, adherent)	0.916	> 10.2	0.503	0.00408	0.985	> 5	0.839	3.18	0.955	> 10.2	0.921	> 0.5	0.584	419	0.982	> 10	0.954	> 2
PANC-04-03 (pancreas, adherent)	0.967	> 10.2	0.919	> 0.064	0.932	> 5	0.951	> 5.12	0.916	> 10.2	0.923	> 0.5	0.91	> 4000	0.872	> 10	0.94	> 2
PC-14 (lung adenocarcinoma, adherent)	0.954	> 10.2	0.535	0.00494	0.957	> 5	0.927	> 5.12	0.801	4.36	0.811	0.23	0.844	2420	0.955	> 10	0.988	> 2
PCI-4B (head and neck, adherent)	0.912	> 10.2	0.504	0.0041	0.909	> 5	0.946	> 5.12	0.935	> 10.2	0.581	0.0514	0.652	642	0.913	> 10	0.94	> 2
PCI-6A (head and neck, adherent)	0.978	> 10.2	0.41	0.00228	0.968	> 5	0.861	4.22	0.983	> 10.2	0.575	0.0499	0.782	1630	0.965	> 10	0.926	> 2
PCI-15A (head and neck, adherent)	0.97	> 10.2	0.708	0.0155	0.963	> 5	0.983	> 5.12	0.988	> 10.2	0.855	0.404	0.981	> 4000	0.94	> 10	0.881	> 2
PCI-30 (head and neck, adherent)	0.973	> 10.2	0.912	> 0.064	0.945	> 5	0.981	> 5.12	0.978	> 10.2	0.968	> 0.5	0.954	> 4000	0.961	> 10	0.971	> 2
PE/CA-PJ15 (head and neck, adherent)	0.986	> 10.2	0.922	> 0.064	0.976	> 5	0.959	> 5.12	0.862	9.93	0.893	> 0.5	0.815	2430	0.948	> 10	0.92	> 2
PL4 (pancreas, adherent)	0.977	> 10.2	0.823	0.0393	0.986	> 5	0.881	> 5.12	0.982	> 10.2	0.981	> 0.5	0.78	1700	0.987	> 10	0.971	> 2
RCM-1 (large intestine, adherent)	0.983	> 10.2	0.941	> 0.064	0.955	> 5	0.981	> 5.12	0.977	> 10.2	0.958	> 0.5	0.634	636	0.916	> 10	0.975	> 2
RERF-LC-KJ (lung adenocarcinoma, adherent)	0.983	> 10.2	0.621	0.00868	0.969	> 5	0.955	> 5.12	0.983	> 10.2	0.947	> 0.5	0.801	2020	0.98	> 10	0.94	> 2
RERF-LC-MS (lung adenocarcinoma, adherent)	0.985	> 10.2	0.673	0.0123	0.962	> 5	0.859	4.45	0.936	> 10.2	0.987	> 0.5	0.979	> 4000	0.941	> 10	0.987	> 2
RERF-LC-Sq1 (lung squamous cell carcinoma, adherent)	0.951	> 10.2	0.95	> 0.064	0.948	> 5	0.947	> 5.12	0.973	> 10.2	0.82	0.484	0.771	2310	0.85	> 10	0.894	> 2
RF-48 (stomach, adherent)	0.874	> 10.2	0.516	0.00444	0.976	> 5	0.87	> 5.12	0.884	> 10.2	0.95	> 0.5	0.966	> 4000	0.918	> 10	0.98	> 2
RH-41 (rhabdomyosarcoma, adherent)	0.992	> 10.2	0.682	0.0117	0.99	> 5	0.992	> 5.12	0.991	> 10.2	0.987	> 0.5	0.983	> 4000	0.948	> 10	0.93	> 2
